We go through 56 variants from the RNAGym collection of RNA variant scans (doi:10.7554/elife.90254).

The source gives no read counts; variants with many changes may rest on few reads.

The chains are these.
B1: LINE1-mini (parent)
chain: GGCAGAGCUCAACACAGCGUGGCAAAGUGGCUGUGGCUAGACUGCC

Variants of B1 are the subject of this data set. Briefly: self-cleavage, relative activity (ratio to wild type); higher = more cleavage; in vitro, sequencing; the parent is a self-cleaving ribozyme.
Consider GGCAGAGCGAAACACAGGGUGGCAAAGUGGGUGUGGCUAGACUGCC [U9G C10A C18G C31G], for which the self-cleavage came out at 0.02.

As to GGCAGAGCGCAACACAGCAUGUCAAAGUGGCCGUGGCUAGACUGCC [U9G G19A G22U U32C], the self-cleavage was found to be 0.09.

Regarding GGCAGAGCUAUACACAGCGUGGCAAAGUGACUGUGGCUAGACUACC [C10A A11U G30A G44A], the self-cleavage turned out to be 0.

For GGCAGAGCGCAACACAGCUUGACAAAGUGGCUGCGUCUAGUCUCCC [U9G G19U G22A U34C G36U A41U G44C], the self-cleavage stood at 0.

Consider GGCAGAGCGCAACACAGCGUGGACAAGUGGCUGUGGCUAGACUGCC [U9G C23A A24C], for which the self-cleavage came to 0.01.

Take GGCAGAGCGCAACAGAGCGUGGUAAAGUGGCUGUGGCUAGACUGCC [U9G C15G C23U]: the self-cleavage was determined as 0.05.

Regarding GGCAGAGCGCAACACAGCGUGGCAAACUGGACGUGGCUAGACUGCC [U9G G27C C31A U32C], the self-cleavage amounted to 0.1.

For GGCAGAGCGCAACACAGCGUGGCACAGUGGCUGUGGCUAUACUGCC [U9G A25C G40U], the self-cleavage came to 0.03.

For the variant GGCAGAGCUAGACACAGCGUGGCAAAGUGGCAGUGGCUAGACUUCC [C10A A11G U32A G44U], the self-cleavage worked out at 0.05.

For GGCAGAGCGCAACACAGCGUAGCAAAGUGGCUGUGCCUAGACUGCC [U9G G21A G36C], the self-cleavage came out at 0.04.

GGCAGAGCGCAACACAGCGUGGCAAAGUUGCUGUGGCUAGUCUGCC [U9G G29U A41U]: the self-cleavage was found to be 0.09.

Turning to GGCAGAGCGCAACACAGCCUUGCAAAGUGGCUGUGGAUAGUCUGCC [U9G G19C G21U C37A A41U], the self-cleavage stood at 0.15.

Turning to GGCAGAGCGCAACACAGCGUGGCAAAGUGGCUGUGACUAAACUGCC [U9G G36A G40A], the self-cleavage turned out to be 0.68.

With GGCAGAGCGCAAAACAGCGUGGCAAAGUGGCUGUGGCUAGAGUGCC [U9G C13A C42G], the self-cleavage was found to be 0.11.

As to GGCAGAGCGUAACACUGCGUGGCAAAGUGGCUGUGACUAGACUGCC [U9G C10U A16U G36A], the self-cleavage came to 0.01.

Consider GGCAGAGCGCAAAACAGCGGUGCAAAGUGGCUGUGGCUAGACUGCC [U9G C13A U20G G21U], for which the self-cleavage stood at 0.07.

As to GGCAGAGCUACUCACAGCGUGGCAAAGUGGCUGUGGCUCGACUGCC [C10A A11C A12U A39C], the self-cleavage amounted to 0.01.

For the variant GGCAGAGCGCAACAUAGCGUGGCCAAGUGGCUGUUGCUAGACUUCC [U9G C15U A24C G35U G44U], the self-cleavage was found to be 0.11.

Regarding GGCAGAGCUAGACACAGGGUGGCAAAGUGGCUGUGGAUAGGAUGCC [C10A A11G C18G C37A A41G C42A], the self-cleavage is 0.

For GGCAGAGCUAUACACAGCGUGGAAAAGUGGCUGUGGAUAGACUGCC [C10A A11U C23A C37A], the self-cleavage is 0.01.

On to GGCAGAGCGGAACACAGCGUGGCAAAGAGGCCGUGGCUAGACUGCC [U9G C10G U28A U32C], for which the self-cleavage amounted to 0.

For the variant GGCAGAGCGCAACACAGCUUGGCAAAGUGGCUGUAGCUAGACUGCC [U9G G19U G35A], the self-cleavage was 0.05.

As to GGCAGAGCGCAACACAGCGUGGCAAUGUGGCUAUUGCUAGACAGCC [U9G A26U G33A G35U U43A], the self-cleavage came to 0.01.

Consider GGCAGAGCGCAAAACAGCGUGGAAUAGUGGCUUUGUCUAGACUUCA [U9G C13A C23A A25U G33U G36U G44U C46A], for which the self-cleavage was 0.01.

As to GGCAGAGCGCAACACAACGUGGCAAAGUGGCAGUGGCUAGAAUGCC [U9G G17A U32A C42A], the self-cleavage was 0.06.

As to GGCAGAGCUAUACAAAGCGUGGCACAGUGGCUGUGGGUAGACUGCC [C10A A11U C15A A25C C37G], the self-cleavage was 0.01.

Take GGCAGAGCGCAACAUAGCGUGGCAAAGUGGCUGUGGCCAGACUGCC [U9G C15U U38C]: the self-cleavage amounted to 0.11.

As to GGCAGAGCGUAACACAGCGUGGCAGAGUGGCUGUGGCUAGACUGCC [U9G C10U A25G], the self-cleavage worked out at 0.01.

GGCAGAGCUAGACACAGCGUUGCAAAGUGGCUGUGGCUAGAGUGCC [C10A A11G G21U C42G]: the self-cleavage stood at 0.01.

Consider GGCAGAGCGCAACACAGCGUCGCAAAGUGGGUGUGGCUAGACUGCC [U9G G21C C31G], for which the self-cleavage was found to be 0.05.

On to GGCAGAGCUACACACAGCGUGGCACAGUGGCUGUGUCUAGACUGCC [C10A A11C A25C G36U], for which the self-cleavage came out at 0.04.

Consider GGCAGAGCGCAACACAGCGUUGCAAAGUGGCUGUGGCUAGGCUGCC [U9G G21U A41G], for which the self-cleavage came out at 0.05.

Take GGCAGAGCGCAACACAGCCUGCCAAAGUGGCUGUGGCUAGACUGCC [U9G G19C G22C]: the self-cleavage came out at 0.05.

For the variant GGCAGAGCGCAACACAGCUUUGCAAAGUGGCUGUGGCUAGACUGCC [U9G G19U G21U], the self-cleavage worked out at 0.

With GGCAGAGCGCAACACAGCGUGGCAAAGUAGCAGUGGCUAGACUGCC [U9G G29A U32A], the self-cleavage was 0.04.

For the variant GGCAGAGCUAUACACCGCGUGGCAAAGUGGCUGUGGCUAGACUGGC [C10A A11U A16C C45G], the self-cleavage came to 0.

In the case of GGCAGAGCGAAACACAACGUGGCAACGUGGCUGUGGCUAGACUGCC [U9G C10A G17A A26C], the self-cleavage was 0.03.

Consider GGCAGAGCGCAACACAGCGUGGCAAAAUGGCUGUGGCUAGACUGCA [U9G G27A C46A], for which the self-cleavage was determined as 0.24.

Take GGCAGAGCGCAACACAGCGUCGCAAAGUGGCUGUGCUUAGACUGCC [U9G G21C G36C C37U]: the self-cleavage was 0.06.

In the case of GGCAGAGCGCAACACAGCGUGGCAAAGUGGCUCUGGCUAGACUGGC [U9G G33C C45G], the self-cleavage was found to be 0.03.

GGCAGAGCGCAACACAUCGUGUCAUAGUGGCUGUGGCUAGACUGCC [U9G G17U G22U A25U]: the self-cleavage worked out at 0.15.

As for GGCAGAGCGCAAAAAAGCGUUGCAAAGUGGCUGUGGCUAGACUGCG [U9G C13A C15A G21U C46G], the self-cleavage is 0.

In the case of GGCAGAGCGGAACACAGCUUGGCAAAGAAGCUGUGGCUAGACUGCC [U9G C10G G19U U28A G29A], the self-cleavage turned out to be 0.02.

For the variant GGCAGAGCGCAACAAAGCUUGGCAAAGUCGCUGUGGGUAAACUGCC [U9G C15A G19U G29C C37G G40A], the self-cleavage was found to be 0.08.

Turning to GGCAGAGCGCAACACAGUGUCGGAAAGUGGCUGUGGCUAGACUGCA [U9G C18U G21C C23G C46A], the self-cleavage was determined as 0.03.

Consider GGCAGAGCGGAAGACUGCGGGGCAAAGUGGCUGUGACUAGACCGCC [U9G C10G C13G A16U U20G G36A U43C], for which the self-cleavage is 0.01.

Regarding GGCAGAGCGCAACAUAGCGUGGCCAAGUGGCUGUGGCUAGACUGUC [U9G C15U A24C C45U], the self-cleavage came out at 0.02.

GGCAGAGCGGAACACAGCGGGGCAAAGUGGCCGUGGCUAGACUGCC [U9G C10G U20G U32C]: the self-cleavage was 0.01.

Take GGCAGAGCGCAACACAGCGUGGCAUAGGGGCUGUGGCUAGACUGCC [U9G A25U U28G]: the self-cleavage amounted to 0.07.

Turning to GGCAGAGCGCAACACAGCGUGGUAAAGUGGCUGUGACUAGACUGCC [U9G C23U G36A], the self-cleavage stood at 0.11.

On to GGCAGAGCGUAACUCAGCGUGGCAAAGUGGCUGUGGCUAGACUGCC [U9G C10U A14U], for which the self-cleavage is 0.05.

In the case of GGCAGAGCGCAACACAGCGAGGCUAAGUGGCUGUGGCUAGACUGCU [U9G U20A A24U C46U], the self-cleavage is 0.02.

As to GGCAGAGCGCAACACAGCUUGGCAAAGUGGCUAAGGCUAGAUUGGC [U9G G19U G33A U34A C42U C45G], the self-cleavage was found to be 0.14.

As to GGCAGAGCGCAAUACAGCGGGGCAAAGUGGCUGUGGCUAGACUGCC [U9G C13U U20G], the self-cleavage was found to be 0.

For the variant GGCAGAGCGCAACACAGCGGGGCAAAGUGGCUGUGGCUAGACUGCG [U9G U20G C46G], the self-cleavage was 0.01.

For the variant GGCAGAGCGUAACACAGCGUGGGAAAGUGGCUGUGGCUAGACUGCC [U9G C10U C23G], the self-cleavage turned out to be 0.34.
